SMILES strings stand for the structures.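 Interpolation was linear, between the two tested concentrations surrounding the appropriate level; five concentrations were tested over 48 hours in 96-well plates. GI50 = concentration required for 50% inhibition of growth. TGI: total growth inhibition.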 Peptide text beside a SMILES is read from it. * marks the point of attachment. Cbz = O=C(OCc1ccccc1)*

The assay relates to NCI-H322M lung. The assay is described as follows: NCI-60 cell line screen, 48 h.
In the case of `CC12ON=C(c3ccccc3)N1C=CN1C(c3ccccc3)=NOC12` (stereo not drawn), the TGI was above 100 µM.

Molecule `Cn1c(O)c(C(=O)Nc2ccc([N+](=O)[O-])cc2)c(=O)n(C)c1=S` showed a TGI of 8.51 µM.

`O=[N+]([O-])c1ccccc1C1N2CCCCC2[C@@H]2c3[nH]c4ccccc4c3CCN12` (stereo partly drawn): the TGI is 27 µM.

In the case of `COc1ccc(/C=C2\COc3ccc(-c4ccccc4)cc3C2=O)cc1O`, the GI50 is 2.43 µM and the TGI came out at 12.6 µM.

As to `O=c1[nH]c(=S)[nH]c(O)c1/C=C1\C=CC=N1`, the TGI turned out to be 75.2 µM.

The molecule `CC1=C(C(=O)OC(C)C)C(c2ccccc2[N+](=O)[O-])C(C(=O)OC(CO[N+](=O)[O-])CO[N+](=O)[O-])=C(C)N1` (stereo not drawn) yielded a TGI of 89.3 µM.

Molecule `O=C1OC(CN2CCN(c3ccccc3)CC2)CN1C(=S)Nc1ccccc1` (stereo not drawn) returned a TGI above 100 µM.

`COc1ccccc1/C=C\c1cc(OC)c(OC)c(OC)c1`: the TGI is above 100 µM.

Take `O=C(O)c1ccccc1/C=N\NC1=NCCN1`: the TGI was above 100 µM.

`O=C(NNS(=O)(=O)c1cc(C(F)(F)F)cc(C(F)(F)F)c1)c1cnn(-c2ccc(Cl)cc2)c1C(F)(F)F`: the GI50 was 21.6 µM and the TGI was determined as 58.5 µM.

`COc1ccc(NC(=O)C(=O)C2NC(=S)NC2=O)c(OC)c1` (stereo not drawn) displayed a TGI above 100 µM.

In the case of `COc1ccc(O)c2c1C(=O)CCCC2=O`, the TGI is above 100 µM.

Consider `COc1ccc([C@H]2O[C@@H](CO)C[C@]2(O)c2ccc(OC)cc2)cc1`, for which the GI50 was above 100 µM and the TGI was above 100 µM.

Molecule `CC(Cc1ccc(O)c(O)c1)C(C)Cc1ccc(O)c(O)c1` (stereo not drawn) gave a TGI of 57.8 µM.

`CCS/C(Nc1ccccc1)=C(\C#N)C(=O)Nc1ccc(OC)cc1`: the GI50 was 5.81 µM and the TGI is above 100 µM.

Take `CN(C)c1ccc(/C=C/c2ccnc3ccccc23)cc1`: the GI50 was 21.1 µM and the TGI is above 100 µM.

In turn, `S=C(Nc1ccc(Br)cn1)NC12CC3CC(CC(C3)C1)C2` came in with a TGI of 61.6 µM.

The molecule `CC(=O)Nc1ccc(-c2nnc(SCC(=O)Nc3ccc(C)cc3)o2)cc1` gave a TGI of 93.1 µM.

Molecule `Nc1c(C(=O)c2ccccc2)[nH]c(NCc2ccccc2)c1C(=S)Nc1ccccc1` returned a TGI above 100 µM.

`C[Si](C)(C)/C=C/CN1C(=O)CCC1O` (stereo not drawn) displayed a TGI above 100 µM.

Consider `CCC1(OC(C)=O)C(=O)OCc2c1cc1n(c2=O)Cc2cc3ccccc3nc2-1` (stereo not drawn), for which the TGI is above 100 µM.

The molecule `O/N=C\c1cc(O)c(O)c(/C=N/O)c1` showed a TGI above 100 µM.

Molecule `CC(=O)c1cccc(NC2C(N)C(NC(=O)N(C)C)(C(C)O)C(C)(O)C2(O)COC(=O)c2c(C)cccc2O)c1` (stereo not drawn) registered a TGI of 0.302 µM.

On to `CC1OC(O)C(O)C(O)C1O` (stereo not drawn), for which the TGI is above 100 µM.

The molecule `CCC1(C)N=C(C(N)=O)c2ncn(N=C(C)C)c2N1` (stereo not drawn) returned a TGI above 100 µM.

Molecule `Cc1cccc2c1C(=O)C(C1OC(=O)c3ccccc31)C2` (stereo not drawn) yielded a TGI above 100 µM.

Regarding `CO[C@H]1O[C@@H]2CO[C@@H](c3ccccc3)O[C@H]2C[C@]12CCC/C=C\CO2`, the TGI was above 75 µM.

`O=C(NC(Nc1ccc(F)c(Cl)c1)(C(F)(F)F)C(F)(F)F)C(C(F)(F)F)C(F)(F)F` gave a TGI above 100 µM.

Molecule `COC(=O)CCCCC/C(=C\C(=O)C(Cl)(Cl)Cl)OC` registered a TGI of 69.9 µM.

Regarding `CC1(C)CC(=O)c2c(nc3ccc4ccccc4c3c2-c2ccc(NC(=O)CCCCC(=O)Nc3ccc(-c4c5c(nc6ccc7ccccc7c46)CC(C)(C)CC5=O)cc3)cc2)C1`, the TGI was above 100 µM.

The molecule `Cc1ccc(Nc2ccc(Nc3ccc(C)cc3)c3c2C(=O)c2c(O)ccc(O)c2C3=O)cc1` gave a TGI above 100 µM.

`CCCCCCCCCC(=O)CC(=O)c1c(O)cccc1O` registered a TGI above 100 µM.

The molecule `CC1=C2C(c3ccccc3)(c3ccccc3)C3C=CC2(C=N3)N(C(=O)NC2CCCCC2)C1=O` (stereo not drawn) showed a TGI of 36 µM.

In the case of `Nc1ccn(C2OC(COP(=O)(O)Oc3ccccc3)C(O)C2O)c(=O)n1` (stereo not drawn), the TGI was above 100 µM.

Molecule `O=C1c2ccccc2C(=O)N1c1ccc(OCCN2CCCCC2)cc1` displayed a TGI above 100 µM.

Regarding `O=[N+]([O-])c1ccc2c(N=Nc3c(O)ccc4ccccc34)c(O)cc(S(=O)(=O)O)c2c1`, the TGI stood at 50 µM.

In turn, `O=C(NCc1ccccc1)c1cnc(Cl)cn1` showed a TGI above 100 µM.

For the molecule `CCCC[C@@H](COC(=O)N(Cc1cccs1)Cc1cccs1)NC(=O)N[C@@H](CC(=O)OC)c1ccc2c(c1)OCO2`, the GI50 was above 100 µM and the TGI is above 100 µM.

With `N#Cc1c(C#N)c(SSc2c(C#N)c(C#N)c(N)n2-c2ccccc2)n(-c2ccccc2)c1N`, the TGI worked out at 49.3 µM.

Consider `COC/C=C\[C@@]1(O)CCCC[C@@H]1CC(OC)OC`, for which the TGI is above 100 µM.

`CC(C)(C)OC(=O)N1CCC23CCCC2C(=O)CC=C13` (stereo not drawn) returned a TGI above 100 µM.

As for `Cc1nc2c(-c3ccccc3)[nH]c(C)c2c(=O)o1`, the TGI was above 100 µM.

For the molecule `Cc1ccc2[nH]c3c(C)c4ccncc4c(C)c3c2c1`, the TGI came out at 1.87 µM.

Turning to `CCC(=O)NCCc1c[nH]c2ccc(OC)cc12`, the TGI was above 100 µM.

Consider `CN(O)C(=O)Cc1ccccc1`, for which the TGI is above 100 µM.

With `CC(=O)c1cn(-c2ccc(Cl)cc2)c(=O)c2c(N)n[nH]c12`, the TGI is above 100 µM.

The molecule `CCOC(=O)C(C)(C)Oc1ccc2c(-c3ccc(Cl)cc3)cc(=O)oc2c1` registered a TGI above 100 µM.

As for `C=C1C(C)C2C(Cc3ccccc3)NC(=O)C23C(OC(C)=O)/C=C/C(C)(O)CC(C)C/C=C/C3C1O` (stereo not drawn), the TGI was above 100 µM.

For `CCCCCCCSCC(O)COC(c1ccccc1)(c1ccccc1)c1ccccc1` (stereo not drawn), the TGI is above 100 µM.

For the molecule `C[Se]C(=O)CC1=C2C=C(F)C=CC2/C(=C\c2ccc(S(C)=O)cc2)C1C` (stereo not drawn), the GI50 is 0.159 µM and the TGI was found to be 3.31 µM.

Turning to `CC(C)(C)C=C=C(C(C)(C)C)P(=O)(O)O`, the TGI is above 100 µM.

Take `CSCCCCCCCCCCOc1ccc(C=C2C(=C(C#N)C#N)c3ccccc3C2=C(C#N)C#N)cc1`: the TGI is 30.8 µM.

`CN(/N=C\c1ccc2ccccc2c1)C1=NCCCCN1`: the TGI is 71.9 µM.

Molecule `CC(C)[Si](OC1=CCCCCC12C(=O)N(C)c1ccccc12)(C(C)C)C(C)C` (stereo not drawn) displayed a TGI of 42.4 µM.

As to `Cc1ccc(NC(=O)C(=O)Cc2nc3ccccc3o2)c(C)c1`, the TGI is above 100 µM.

Take `COc1ccc2c(c1)OC13Oc4cc(OC)ccc4C=C1CCCC3=C2`: the GI50 was above 100 µM and the TGI is above 100 µM.

`Cc1ccc(N2C(=O)/C(=C3\Sc4c(nc(C)[nH]c4=O)N3c3ccccc3)SC2=S)cc1` showed a TGI above 100 µM.

Regarding `CCOC(=O)C(C[Si](C)(C)C)P(=O)(OCC)OCC` (stereo not drawn), the TGI is above 100 µM.

The molecule `O=[As](O)(O)c1ccc(Cc2ccc([As](=O)(O)O)cc2)cc1` registered a TGI of 9.5 µM.

Turning to `COc1ccc(NC(=O)c2cc(OC)c(OC)c(OC)c2)cc1O`, the GI50 was above 100 µM and the TGI was above 100 µM.

The molecule `CC1OC(=O)c2ccccc2NC1=O` (stereo not drawn) returned a TGI above 100 µM.

`CNC(=O)CN1CC(=O)N(C)C(=O)C1` registered a TGI above 100 µM.

As to `O=C(/C=C/c1ccc(O)c(O)c1)OCCOC(=O)/C=C/c1ccc(O)c(O)c1`, the TGI was above 100 µM.

`COc1ccc2c(c1)c1cc(OC)ccc1n2CCCCOc1ccc(-c2c3ccccc3c(-c3ccc(OCCCCn4c5ccc(OC)cc5c5cc(OC)ccc54)cc3)c3ccccc23)cc1` displayed a TGI above 100 µM.

Regarding `COc1ccc(/C=C(\C#N)c2cc3ccccc3n2C)cc1`, the GI50 was 0.57 µM and the TGI was above 100 µM.

As to `CCOC(=O)C(C)NC(=O)C(C)NC(=O)C(C)NC(=O)C(C)NC(=O)C(C)NC(=O)C(C)NC(=O)C(C)NC(=O)OCc1ccccc1` (stereo not drawn) (Cbz-AAAAAAA-OEt; configuration not given here), the TGI is above 100 µM.

Turning to `C[C@@H]1OC(=O)C[C@H]2CC(=O)N(CCc3cn(S(=O)(=O)C(F)(F)F)c4ccccc34)C[C@@H]21`, the TGI is above 100 µM.

In turn, `Clc1nc2c(-c3cccs3)ncnc2n1Cc1ccccc1` yielded a TGI of 5.56 µM.

`CC(=O)Oc1cccc2c1C(=O)c1c(OC(C)=O)cc(C)cc1C2=O` gave a TGI above 100 µM.

`Nc1cccc(OCc2nc(N)nc(N)c2-c2ccc(Cl)cc2)c1` had a TGI above 100 µM.

For `Cc1nc(C(N)=S)sc1C(=O)/C=C/c1cccc(O)c1`, the TGI is above 100 µM.

For the molecule `FC(F)(F)c1ccc(-c2cnc(Br)nc2NC2CCCCCC2)cc1`, the GI50 is above 100 µM and the TGI is above 100 µM.

`Cc1cc(C)c(C(=O)OC(c2ccccc2)C(c2ccccc2)N2CCOCC2)c(C)c1` (stereo not drawn) registered a TGI above 100 µM.

As to `CCN1/C(=C/C(C)=C/c2sc3ccccc3[n+]2CC)Sc2ccccc21`, the TGI stood at 1.74 µM.

In the case of `Cn1ccnc1C(=O)/C=C/c1ccc(C(=O)Nc2nc3ccccc3[nH]2)cc1`, the GI50 is 4.19 µM and the TGI is above 25 µM.

In the case of `Cc1[nH]c2ccccc2c1C=Nc1ccc(Oc2ccccc2)cc1`, the TGI is 29.1 µM.

The molecule `CC1(C)CCc2c(c(N=Nc3ccccc3)c3ccccc3c2O)O1` registered a TGI above 100 µM.

`C[C@@H]1CC[C@@]2(OC1)O[C@H]1C[C@H]3[C@@H]4CC=C5C[C@@H](O[C@@H]6O[C@H](CO)[C@@H](O[C@@H]7O[C@@H](CO)[C@H](O)[C@H]7O)[C@H](O)[C@H]6O[C@@H]6O[C@@H](C)[C@H](O)[C@@H](O)[C@H]6O)CC[C@]5(C)[C@H]4CC[C@]3(C)[C@H]1[C@@H]2C`: the GI50 was 1.31 µM and the TGI amounted to 2.58 µM.

Take `CC(=O)N1CC(F)(F)c2c(Sc3ncc(N4CCC5(CC4)COC[C@H]5N)nc3N)cccc21`: the GI50 is 3.93 µM and the TGI is above 100 µM.

`COc1ccc(C(Nc2ncccn2)c2cc3c(cc2O)OCO3)cc1` (stereo not drawn) yielded a TGI of 64.3 µM.

For `COCN1C(=O)[C@@H]2CCCN2C(=O)c2cc([N+](=O)[O-])ccc21`, the TGI is above 100 µM.

Regarding `COc1ccc2c3c(c(OCCCN(C)C)nc2c1)-c1ccc(Cl)cc1C3=O`, the GI50 was 3.9 µM and the TGI came out at 19.9 µM.

For the molecule `COc1ccc(-c2ccc(-c3ccc(C(=N)N)cn3)s2)cc1Cl`, the GI50 is 1.49 µM and the TGI was 2.86 µM.

With `COc1cc(C2C(C(=O)Nc3ccccc3)=C(C)NC(C)=C2C(=O)Nc2ccccc2)ccc1O`, the TGI was above 100 µM.

In the case of `CC(=O)/C(C)=N/N/C(N)=N\S(=O)(=O)c1cc(C(=O)Nc2ccccc2)c(Cl)cc1SCc1ccccc1`, the GI50 was 37.7 µM and the TGI was above 100 µM.

For `COC(=O)C1=C(C)NC(C)=C([N+](=O)[O-])C1c1cccc(NO)c1` (stereo not drawn), the TGI is above 100 µM.

(Values after PubChem BioAssay (NCI).)
